From US20220193181A1 (priority 2020, published 2022)
Like-named read-outs stand apart in the source and are kept apart here.

What was measured:
THP-1 derived macrophage = assay: Secretion of pro- or anti-inflammatory cytokines in LPS stimulated THP-1 derived macrophage (ELISA); details: LPS 100 ng/ml, 48 hr; GSNO 10 μM, N6022 1 μM, N91115 1 μM, pretreated 1 hr; ELISA of media
Protocol: (§1) THP-1 cells were cultured in the presence of PMA (50 ng/ml; treated for 48 hr) for differentiation into macrophages. […] The levels of IL-10, IL-6, TNF-α and IFN-7 in the media were quantified by enzyme-linked immunosorbent assay (ELISA). Bars represent the means±SEM from three independent experiments. Significant differences between means of media alone and individual stimuli are indicated: **p≤0.01, ***p≤0.001 as compared to the control group. +p≤0.05, ++p≤0.01, +++p≤0.001 as compared to LPS treated group. N.S. represents not significant.
Macrophages are the major source of IL-6 among the innate immune system. […] GSNO as well as inhibitors of GSNOR (V6002 and N9111) inhibit the expression of proinflammatory cytokines (TNFα, IFNγ and IL-6) in LPS stimulated THP-1 cells, a human macrophage cell line.

EAE mice [1] = details: N6022 1 mg/kg/day/ip starting day 14, day 21
Protocol: (§2) FIGS. 4A-C. B cell/ASC subset-specific effect of GSNO on the expression of IL-10 versus IL-6. […] Then, the numbers of total, IL-10^+, or IL-6^+ B cell/ASC subsets (Bla, Bib, Breg, transitional B cells (T1, T2), marginal zone (MZ) B cells, MZ precursor B cells (MZP), follicular B cells (FO), memory B cells, plasmablasts, and plasma cells) were analyzed by flow cytometry. Please see table 1 for the phenotyping of these subsets of cells. (FIG. 4B) Human blood B cells (Stemcell cat #: 70023) were stimulated with anti-IgM/IgG Ab (@IgM: 10 μg/ml; eBioscience #16-509985) and co-stimulated with rBAFF (100 ng/ml; R&D #2149BF) and anti-CD40 Ab (1 g/ml; Enzo #ALX805046) in the presence or absence of GSNO (50 μM/1 hr) pretreatment. 43 hr after the cells were further incubated with PMA/ionomycin/Brefeldin-A for 5 hr and cells were stained for total B cells, transitional/immature B cells, mature B cells, memory B cells, plasmablasts, or plasma cells and their expression of IL-10 and IL-6. […] (n.s.: not significant).
(§3) FIGS. 4A-C show GSNO/GSNORi-mediated regulation of IL-10 versus IL-6 in B cell/ASC subsets. […] These in vivo and in vitro data document that GSNO/GSNORi-mediated induction of IL-10 and suppression of IL-6 is not limited to human B10/Breg but to all subsets of B cells and ASCs.

EAE mice [2] = details: for blood IL-6 levels / blood IL-10 levels / number of IL-6+ B cells in the CNS and the spleen / numbers of IL-10+ B cells in the CNS and the spleen: 1 mg/kg/day/ip starting day 9; for blood IL-6 levels / blood IL-10 levels: ELISA; for number of IL-6+ B cells in the CNS and the spleen / numbers of IL-10+ B cells in the CNS and the spleen / CNS infiltration of B cells: day 21; for CNS infiltration of B cells: 1 mg/kg/day/ip starting day 9 post-immunization
Excerpt: Therefore, the inventors investigated the efficacy of GSNO and GSNORi (N6022) in B cell mediated pathogenesis in autoimmune disorder of EAE, animal model of MS. […] B cells have been recognized as a major source of IL-10 and IL-6 in the blood in MS and EAE.

[3] = test system: THP-1 human macrophage cell line; assay: IL-6 and IL-10 mRNA in LPS stimulated THP-1 macrophage (qPCR); details: LPS 100 ng/ml, 6 hr, GSNO 10 μM, N6022 1 μM, N91115 1 μM
Protocol: as §1, with “IL-10” for “IL-10, IL-6, TNF-α”, “IL-6 mRNA” for “IFN-7 in the media”, “analyzed” for “quantified”, “quantitative PCR (qPCR).” for “enzyme-linked immunosorbent assay (ELISA).”, “indicated: *p≤0.05,” for “indicated:”

Human blood B cells = details: anti-IgM/IgG, rBAFF, anti-CD40 stimulated; GSNO 50 μM
Protocol: as §2, §3

splenic B cells [4] = assay: ELISpot assay of IL-10 producing splenic B cells; assay type: cell-based, mice; details: 50 μM GSNO, 48 hrs
Splenic B cells [5] = details: GSNO 50 μM; for IL-6 production / IL-10 production: ELISA
Protocol: Splenic B cells purified from C57BL/6 mice were stimulated with IgM-specific goat F(ab′)2 Ab (@IgM: 10 μg/ml; Invitrogen #16509285) and co-stimulated (CS) with rBAFF (100 ng/ml; R&D #2149BF) and anti-CD40 Ab (10 μg/ml; Enzo #ALX805046) with/without GSNO (50 μM) pretreatment (1 hr). After 43 hr incubation, the cells were further incubated with PMA/ionomycin/Brefeldin-A for 5 hr. (FIG. 3A) Then, the levels of IL-10 (i) and IL-6 (ii) were analyzed by ELISA. (FIG. 3B) The numbers of B cells (B220^+) (i), IL-10^+ B cells (B220^+IL-10^+) (ii), and IL-6^+ B cells (B220^+IL-6^+) (iii) were analyzed by flow cytometry. (FIG. 3C) The numbers of CD1d^hiCD5^hi B cells (B220^+) (i), IL-10^+ (ii) and IL-6^+ CD1d^hiCD5^hi B cells (B220^+) were analyzed. (FIG. 3D) The numbers of CD1d^loCD5^hi B cells (B220^+) (i), IL-10^+ (ii) and IL-6^+ CD1d^loCD5^hi B cells (B220^+) were analyzed. […] The “n” represents the number of cell cultures.
In adaptive immunity, B cells are the major source of IL-6. […] Activated B cells (CD5^hi 96) expressing high levels of CD1d are reported to produce high levels of IL-10 (so-called Breg).

[6] = stimulatory/co-stimulatory conditions
[7] = stimulatory/costimulatory conditions
[8] = stimulatory/costimulatory conditions, flow cytometry

Row | SMILES | expression of anti-inflammatory cytokine IL-10 (THP-1 derived macrophage) | expression of proinflammatory cytokine IFNγ (THP-1 derived macrophage) | expression of proinflammatory cytokine IL-6 (THP-1 derived macrophage) | expression of proinflammatory cytokine TNFα (THP-1 derived macrophage) | blood IL-6 levels (EAE mice [2]) | blood IL-10 levels (EAE mice [2]) | number of IL-6+ B cells in the CNS and the spleen (EAE mice [2]) | numbers of IL-10+ B cells in the CNS and the spleen (EAE mice [2]) | CNS infiltration of B cells (EAE mice [2]) | mRNA levels of IL-6 [3] | mRNA levels of IL-10 [3] | also measured
1 | Cc1cc(C(N)=O)ccc1-n1c(CCC(=O)O)ccc1-c1ccc(-n2ccnc2)cc1 [N6022] | induced | inhibit | inhibit | inhibit | decreased | further increased | decreased | increased | decreased | down regulate | upregulating | frequency of IL-6+ cells in almost all B cell and ASC subsets (EAE mice [1]; CNS as well as spleen): decreased; frequency of IL-10+ cells in almost all B cell and ASC subsets (EAE mice [1]; CNS as well as spleen): increased; memory B cells in the spleen (EAE mice [1]): most dramatic reduction; numbers of B cells and ASCs in the CNS (EAE mice [1]): decreased; numbers of several subsets of B cells (e.g., Breg and memory B cells) in the spleen (EAE mice [1]): decreased; numbers of the most subsets of B cells and ASCs in the CNS (EAE mice [1]): decreased; splenic ASCs (plasmablasts and plasma cells) (EAE mice [1]): increased
2 | N[C@@H](CCC(=O)N[C@@H](CSN=O)C(=O)NCC(=O)O)C(=O)O [GSNO, S-nitrosoglutathione] | induced | inhibit | inhibit | inhibit | decreased | further increased | decreased | increased | decreased | down regulate | upregulating | IL-6+ cells in all subsets of B cells and ASCs (Human blood B cells): decreased; frequency of IL-10+ cells in all subsets of B cells and ASCs (Human blood B cells): increased; number of total B cells (Human blood B cells): no obvious effect; numbers of ASCs (plasmablasts and plasma cells) (Human blood B cells): increasing; numbers of some subsets of B cells (e.g., immature B cells and memory B cells) (Human blood B cells): decreased; number of IL-10+ B cells (splenic B cells [4]; B cells from EAE mice, anti-B220 and MOG35-55 coated plates): increased; number of IL-10+ B cells (splenic B cells [4]; B cells from control mice (non-EAE)): did not increase; number of total B cells (B220+) (Splenic B cells [5]; both quiescent and stimulatory/costimulatory conditions, flow cytometry): slightly decreased; IL-6 production (Splenic B cells [5]; quiescent conditions): did not affect; IL-10 production (Splenic B cells [5]; quiescent conditions): did not affect; number of IL-6+ CD1dhiCD5hi B cells (Splenic B cells [5]; stimulation/co-stimulation): decreased; number of IL-10+ CD1dhiCD5hi B cells (Splenic B cells [5]; stimulation/co-stimulation): drastically increased; number of total CD1dhiCD5hi B cells (Splenic B cells [5]; stimulation/co-stimulation): decreased; IL-6 production (Splenic B cells [5]; [6]): decrease; IL-10 production (Splenic B cells [5]; [6]): increase; number of IL-6+ CD1dloCD5hi B cells (Splenic B cells [5]; [7]): decreasing; number of IL-10+ CD1dloCD5hi B cells (Splenic B cells [5]; [7]): increased; IL-6+ B cells (Splenic B cells [5]; [8]): decreasing; IL-10+ B cells (Splenic B cells [5]; [8]): drastically increased
3 | O=C(O)c1ccc(-c2ccc3cc(O)ccc3n2)c(Cl)c1 [N91115] | induced | inhibit | inhibit | inhibit |  |  |  |  |  | down regulate | upregulating | 
